# Results as given in publication PMC4336329 (PLoS ONE, 2015).
# The campaign covered roughly 310,000 compounds. About 14,000 (4.5%) showed an effect of 50% or more. Effects have a minus sign here. The list shows a part of the results.
# Molecular target: human ether-à-go-go-related gene (hERG) potassium channel (human, UniProt Q12809)
# Test: primary screen, population patch clamp on CHO cells stably expressing hERG
# 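Also: peak tail current of the secondary pulse compared with the same well before compound.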
# Sequence of human ether-à-go-go-related gene (hERG) potassium channel (Q12809 whole entry, looked up): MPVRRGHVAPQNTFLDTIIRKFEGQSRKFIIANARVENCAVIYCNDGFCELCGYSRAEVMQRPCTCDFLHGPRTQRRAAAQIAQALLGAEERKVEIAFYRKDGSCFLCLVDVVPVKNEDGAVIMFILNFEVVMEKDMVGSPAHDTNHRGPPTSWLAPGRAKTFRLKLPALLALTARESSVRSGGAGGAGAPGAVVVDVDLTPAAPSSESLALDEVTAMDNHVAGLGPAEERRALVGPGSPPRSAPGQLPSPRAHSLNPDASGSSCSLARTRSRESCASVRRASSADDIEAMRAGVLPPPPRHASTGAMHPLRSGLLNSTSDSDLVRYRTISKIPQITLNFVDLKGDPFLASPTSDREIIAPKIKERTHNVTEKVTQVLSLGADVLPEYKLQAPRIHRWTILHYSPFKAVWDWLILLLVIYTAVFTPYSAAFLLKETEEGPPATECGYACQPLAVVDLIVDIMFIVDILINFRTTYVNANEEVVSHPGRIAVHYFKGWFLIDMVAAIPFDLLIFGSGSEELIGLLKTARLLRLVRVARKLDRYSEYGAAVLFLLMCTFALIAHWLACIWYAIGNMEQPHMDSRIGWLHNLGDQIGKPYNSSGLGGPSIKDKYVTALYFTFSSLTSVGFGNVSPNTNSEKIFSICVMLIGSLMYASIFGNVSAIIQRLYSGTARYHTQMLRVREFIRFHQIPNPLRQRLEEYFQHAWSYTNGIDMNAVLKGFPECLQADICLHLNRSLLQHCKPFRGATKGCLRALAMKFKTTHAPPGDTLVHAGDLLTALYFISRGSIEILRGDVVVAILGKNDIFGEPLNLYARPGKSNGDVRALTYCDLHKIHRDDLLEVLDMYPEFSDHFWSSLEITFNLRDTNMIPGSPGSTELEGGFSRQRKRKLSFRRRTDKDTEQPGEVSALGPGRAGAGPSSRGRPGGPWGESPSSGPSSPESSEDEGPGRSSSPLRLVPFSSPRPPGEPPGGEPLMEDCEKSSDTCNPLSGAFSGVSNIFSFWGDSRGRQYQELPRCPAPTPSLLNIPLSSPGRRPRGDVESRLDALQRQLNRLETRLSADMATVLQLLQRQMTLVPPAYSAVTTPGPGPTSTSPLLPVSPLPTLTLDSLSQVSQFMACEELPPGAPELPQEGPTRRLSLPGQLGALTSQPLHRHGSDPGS
row,SMILES,"hERG current change (%, negative = inhibition) at 10uM"
1,CC(C)Oc1ccc(CN2CCCC(CO)(Cc3ccc(F)cc3)C2)cc1 (stereo not drawn),-58.7%
2,O=C(Nc1ccc(F)cc1)Nc1ccc(N2CCOCC2)c2nonc12,6.45%
3,Cn1c(SCC(=O)NC2CCCCC2)nnc1-c1ccncc1,13.2%
4,CCN(CC(=O)Nc1ccc(N2CCOCC2)cc1)C(=O)Cc1ccccc1,3.76%
5,Cc1ccc2c(CC(=O)OCc3cc(=O)n4c(n3)sc3ccccc34)coc2c1,5.05%
6,Cc1ccc2nc(N(CCCN(C)C)C(=O)c3ccc(S(=O)(=O)N4CCCCCC4)cc3)sc2c1.Cl,-58%
7,CCOC(=O)c1cccnc1NC(=O)c1ccccc1,11.6%
8,O=C(Nc1ccncc1)c1cccc(F)c1,-1.23%
9,COc1ccc(N(CC(=O)NCc2ccccc2)S(=O)(=O)c2c(C)noc2C)cc1,2.7%
10,COc1ccc(C(=O)COC(=O)CNC(=O)C2CCCCC2)c(OC)c1,-11%
11,O=C(Oc1ccc(N(Cc2cccs2)C2=NS(=O)(=O)c3ccccc32)cc1)c1ccccc1F,-1.66%
12,CN(C)CCCn1c(SCC(=O)N2c3ccccc3Sc3ccccc32)nc2ccccc2c1=O,-39.5%
13,CN(C)CCCNC(=O)c1cc(C(=O)Cc2ccccc2)c[nH]1,-8.15%
14,Cc1cc(C)c(C#N)c(N2CCN(Cc3ccc4c(c3)OCO4)CC2)n1,-45.1%
15,O=C(CN1CCCC1)N1CCN(c2ccccc2)CC1,2.58%
16,COc1ccc(CCNC(=O)CCSCc2ccccc2F)cc1OC,9.07%
17,O=C(NC(=S)Nc1ccc2c(c1)OCCO2)c1ccccc1,-0.633%
18,Cn1ncc2nnn(-c3ccccc3)c(=O)c21,-1.07%
19,COc1ccc(C(O)C(C)NC(C)C(O)c2ccc(OC)cc2)cc1 (stereo not drawn),4.3%

row,SMILES,"hERG current change (%, negative = inhibition) at 10uM"
1,O=C(COC(=O)/C=C/c1cccc(Br)c1)NC1CCCCCC1,-4.26%
2,COc1ccccc1-n1cc(-c2ccc(Cl)cc2)[nH]c1=O,-17%
3,CCOC(=O)C1CCCN(C(=S)NC2CCCC2)C1 (stereo not drawn),-22.4%
4,O=C(CC(CC(=O)c1ccccc1)c1ccccc1)c1ccccc1,0.181%
5,Cc1nn(Cc2ccccc2)c2c1C(c1ccc(Cl)cc1)C(C#N)=C(N)O2 (stereo not drawn),8.31%
6,COc1ccc(COc2cc(-c3cccc(OC)c3)nc3ccc(NC(=O)c4ccc(N(C)C)cc4)cc23)cc1,9.2%
7,CCCC(C(=O)O)n1c(O)c(C=C2N=c3ccccc3=N2)sc1=S (stereo not drawn),6.16%
8,CC(=NCCCO)c1c(O)[nH]c(=O)[nH]c1=O,8.53%
9,CCCc1[nH]nc2c1C(c1ccc(O)c(OC)c1)C(C#N)=C(N)O2 (stereo not drawn),-31.9%
10,COc1cc(C(=O)C(=O)c2cc(OC)c(O)c(OC)c2)cc(OC)c1O,5.6%
11,O=C(CN1C(=O)c2ccccc2C1=O)Nc1sc2c(c1C(=O)NCC1CCCO1)CCC2 (stereo not drawn),-2.69%
12,CCCCn1c(N)c(N(CCOC)C(=O)c2ccc3c(c2)OCCO3)c(=O)[nH]c1=O,-1.84%
13,Cc1sc2ncn3c(C)nnc3c2c1C,8.78%
14,O=C(CN1C(=O)NC(Cc2ccccc2)C1=O)Nc1ccc(F)c(F)c1F (stereo not drawn),1.56%
15,NC(=O)COc1ncn(-c2ccccc2)n1,15.4%
16,CC(=O)Nc1ccc(NC(=O)CSc2nnc(NC(=O)Cc3ccc(F)cc3)s2)cc1,26%
17,Fc1ccc(-c2n[nH]c(=S)n2CC2CCCO2)cc1 (stereo not drawn),16.7%
18,COc1ccc(CN2CCNC(=O)C2CC(=O)NCc2ccc(C)s2)c(OC)c1 (stereo not drawn),-3.59%
19,COc1ccc(CC(=O)Nc2ccc3c(c2)CCC3)cc1,7.81%

row,SMILES,"hERG current change (%, negative = inhibition) at 10uM"
1,COc1ccc(CCNC(=O)C(=O)NCC2OCCN2S(=O)(=O)c2ccc(Br)cc2)cc1 (stereo not drawn),-7.02%
2,O=C(NC1CCS(=O)(=O)C1)C1CCCC1 (stereo not drawn),10.9%
3,CC1CCCC(C)N1C(=O)COc1ccc(C(=O)N/N=C/c2ccc(C(=O)O)cc2)cc1 (stereo not drawn),21.9%
4,O=C1c2cccc3cccc(c23)C(=O)N1CCN1CCN(CC(O)COc2ccc3ccccc3c2)CC1 (stereo not drawn),-11.7%
5,CCn1nc(C)c([N+](=O)[O-])c1C(=O)NNC(=O)c1ccc(Cl)cc1,5.07%
6,CS(=O)(=O)N1CC2CCCN2c2ccc(C(F)(F)F)cc21 (stereo not drawn),-2.83%
7,O=C(NCc1ccc(Cl)cc1)C(=O)c1c[nH]c2ccccc12,11.1%
8,S=C(NCc1ccc(Cl)cc1)N1CCN(c2ccccn2)CC1,-23.9%
9,O=C(CNS(=O)(=O)c1c(F)cc(F)cc1Br)OCC(=O)N1CCCC1=O,-3.21%
10,CC1(C)CC(=O)C(CS(=O)(=O)c2ccccc2)=C(O)C1,10.4%
11,CN(C)c1ccc(NC(=O)Nc2cccc3ccccc23)cc1,36.5%
12,CC(C)c1ccccc1-n1cc[nH]c1=S,13.4%
13,Cc1ccccc1NS(=O)(=O)c1cccc(C(=O)Nc2cccc(C(=O)O)c2)c1,22.4%
14,COc1cccc(OC)c1C(=O)Nc1nc2cc3c(cc2s1)OCO3,11%
15,O=C(C1CCC1)N1CCc2cc(S(=O)(=O)N3CCN(c4ccccn4)CC3)ccc21,-8.07%
16,CC#CC(=O)N1CCC(CO)(CCc2ccccc2)CC1,1.33%
17,COc1ccc(NC(=O)CCCn2c(=S)[nH]c3ccccc3c2=O)cc1,16.5%
18,CCOc1cc(/C=N/NC(=O)COc2ccccc2C)ccc1OC(=O)c1cccs1,5.36%
19,O=C(Oc1cc(Cl)ccc1Cl)c1ccc(N2CCOCC2)c([N+](=O)[O-])c1,4.44%
